# Measured values as given in the supplement of paper PMC8728848.
# This is one part of the list.
# B1: IRp60B (Homo sapiens), Q9UGN4-3 (protein)
# chain: MWLPWALLLLWVPAGDHSELSQNPKQAATQSELHYANLELLMWPLQEKPAPPREVEVEYSTVASPREELHYASVVFDSNTNRIAAQRPREEEPDSDYSVIRKT
# Legend:
# Assay in all cases: glycan array binding signal (z-score within array); higher = stronger binding
# Conditions in all cases: glycan notation: IUPAC condensed, linker removed
# [1] = molecular target: GalNAc(b1-3)GalNAc
# Procedure, shortened: (§1)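 Negative Z-scores can be read as non-binding. The Z-score is calculated within each array and then averaged across arrays of one protein sequence at different concentrations or buffers and across linkers. Arrays, 3228 in all, were curated from the Consortium for Functional Glycomics database and kept only where the protein sequence was available.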
# [2] = molecular target: GalNAc(b1-4)GlcNAc
# Procedure, shortened: as §1
# [3] = molecular target: Glc(a1-4)Glc
# Procedure, shortened: as §1
# [4] = molecular target: Glc(b1-4)Glc
# Procedure, shortened: as §1
# [5] = molecular target: Glc(b1-6)Glc
# Procedure, shortened: as §1
# [6] = molecular target: GlcNAc(b1-2)Gal(b1-3)GalNAc
# Procedure, shortened: as §1
# [7] = molecular target: GlcNAc(b1-3)Gal
# Procedure, shortened: as §1
# [8] = molecular target: GlcNAc(b1-3)Gal(b1-3)GalNAc
# Procedure, shortened: as §1
# [9] = molecular target: GlcNAc(b1-3)Gal(b1-4)Glc
# Procedure, shortened: as §1
# [10] = molecular target: GlcNAc(b1-3)Gal(b1-4)GlcNAc
# Procedure, shortened: as §1
# [11] = molecular target: GlcNAc(b1-3)[GlcNAc(b1-6)]GalNAc
# Procedure, shortened: as §1
# [12] = molecular target: GlcNAc(b1-3)[GlcNAc(b1-6)]GlcNAc(b1-4)GlcNAc
# Procedure, shortened: as §1
# [13] = molecular target: GlcNAc(b1-4)GlcNAc(b1-4)GlcNAc
# Procedure, shortened: as §1
# [14] = molecular target: GlcNAc(b1-4)[GlcNAc(b1-6)]GalNAc
# Procedure, shortened: as §1
# [15] = molecular target: GlcNAc(b1-6)GalNAc
# Procedure, shortened: as §1
# [16] = molecular target: Kdn(a2-3)Gal(b1-3)GlcNAc
# Procedure, shortened: as §1
# [17] = molecular target: Kdn(a2-3)Gal(b1-4)GlcNAc
# Procedure, shortened: as §1
# [18] = molecular target: Man(a1-2)Man(a1-2)Man(a1-3)Man
# Procedure, shortened: as §1
# [19] = molecular target: Man(a1-2)Man(a1-2)Man(a1-6)[Man(a1-3)]Man
# Procedure, shortened: as §1
# [20] = molecular target: Man(a1-2)Man(a1-3)Man
# Procedure, shortened: as §1
# [21] = molecular target: Man(a1-2)Man(a1-3)[Man(a1-2)Man(a1-6)]Man
# Procedure, shortened: as §1
# [22] = molecular target: Man(a1-2)Man(a1-3)[Man(a1-2)Man(a1-6)]Man(a1-6)[Man(a1-2)Man(a1-2)Man(a1-3)]Man(b1-4)GlcNAc(b1-4)GlcNAc
# Procedure, shortened: as §1
# [23] = molecular target: Man(a1-2)Man(a1-3)[Man(a1-2)Man(a1-6)]Man(a1-6)[Man(a1-3)[Man(a1-6)]Man(a1-6)]Man(b1-4)GlcNAc(b1-4)GlcNAc
# Procedure, shortened: as §1
# [24] = molecular target: Man(a1-2)Man(a1-3)[Man(a1-6)]Man(a1-6)[Man(a1-2)Man(a1-3)]Man(b1-4)GlcNAc(b1-4)GlcNAc
# Procedure, shortened: as §1
# [25] = molecular target: Man(a1-2)Man(a1-6)[Man(a1-3)]Man(a1-6)[Man(a1-2)Man(a1-2)Man(a1-3)]Man(b1-4)GlcNAc(b1-4)GlcNAc
# Procedure, shortened: as §1
# [26] = molecular target: Man(a1-3)[Man(a1-6)]Man
# Procedure, shortened: as §1
# [27] = molecular target: Man(a1-3)[Man(a1-6)]Man(a1-6)[Man(a1-3)]Man(b1-4)GlcNAc(b1-4)GlcNAc
# Procedure, shortened: as §1
# [28] = molecular target: Neu5Ac(a2-3)Gal
# Procedure, shortened: as §1
# [29] = molecular target: Neu5Ac(a2-3)Gal(b1-3)GalNAc
# Procedure, shortened: as §1
# [30] = molecular target: Neu5Ac(a2-3)Gal(b1-3)GalNAc6S
# Procedure, shortened: as §1
# [31] = molecular target: Neu5Ac(a2-3)Gal(b1-3)GlcNAc
# Procedure, shortened: as §1
# [32] = molecular target: Neu5Ac(a2-3)Gal(b1-3)[Fuc(a1-4)]GlcNAc
# Procedure, shortened: as §1
# [33] = molecular target: Neu5Ac(a2-3)Gal(b1-3)[Neu5Ac(a2-3)Gal(b1-4)]GlcNAc
# Procedure, shortened: as §1
# [34] = molecular target: Neu5Ac(a2-3)Gal(b1-3)[Neu5Ac(a2-6)]GalNAc
# Procedure, shortened: as §1
# [35] = molecular target: Neu5Ac(a2-3)Gal(b1-4)Glc
# Procedure, shortened: as §1
# [36] = molecular target: Neu5Ac(a2-3)Gal(b1-4)GlcNAc
# Procedure, shortened: as §1
binder,measurement,setting,value
B1,glycan array binding signal (z-score),[1],-0.335
same,glycan array binding signal (z-score),[2],-0.348
same,glycan array binding signal (z-score),[3],-0.26
same,glycan array binding signal (z-score),[4],0.079
same,glycan array binding signal (z-score),[5],-0.442
same,glycan array binding signal (z-score),[6],-0.44
same,glycan array binding signal (z-score),[7],-0.256
same,glycan array binding signal (z-score),[8],-0.428
same,glycan array binding signal (z-score),[9],-0.382
same,glycan array binding signal (z-score),[10],-0.41
same,glycan array binding signal (z-score),[11],-0.326
same,glycan array binding signal (z-score),[12],-0.47
same,glycan array binding signal (z-score),[13],-0.244
same,glycan array binding signal (z-score),[14],-0.426
same,glycan array binding signal (z-score),[15],0.761
same,glycan array binding signal (z-score),[16],-0.473
same,glycan array binding signal (z-score),[17],-0.33
same,glycan array binding signal (z-score),[18],-0.27
same,glycan array binding signal (z-score),[19],-0.361
same,glycan array binding signal (z-score),[20],-0.452
same,glycan array binding signal (z-score),[21],-0.434
same,glycan array binding signal (z-score),[22],-0.264
same,glycan array binding signal (z-score),[23],-0.447
same,glycan array binding signal (z-score),[24],-0.364
same,glycan array binding signal (z-score),[25],-0.462
same,glycan array binding signal (z-score),[26],-0.218
same,glycan array binding signal (z-score),[27],-0.408
same,glycan array binding signal (z-score),[28],0.534
same,glycan array binding signal (z-score),[29],-0.469
same,glycan array binding signal (z-score),[30],-0.231
same,glycan array binding signal (z-score),[31],-0.429
same,glycan array binding signal (z-score),[32],-0.134
same,glycan array binding signal (z-score),[33],-0.446
same,glycan array binding signal (z-score),[34],-0.392
same,glycan array binding signal (z-score),[35],-0.363
same,glycan array binding signal (z-score),[36],-0.31
